Data on 40 sequences can be found in the supplement of paper PMC10338343.

± gives the standard deviation. The list shows a part of the results, in another mix than the full data. Where only a bound is given, the exact number is not on record here.

This assay has as its system MIWI (PIWIL1) piRISC loaded with piRNA #1 (30 nt). In words: pre-steady-state target cleavage rate (min^-1); MIWI and MILI are mouse PIWI proteins and EfPiwi is from a freshwater sponge; tags in brackets are library labels; higher = faster piRNA-guided slicing of the target. The settings on record: guide: piRNA #1 5'p-UGAGGUAGUAGGUUGUAUAGUAUCCAGAGG; auxiliary factor: 500 nM mouse GTSF1. Put shortly: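 Cleave-'n-Seq: 1 nM active affinity-purified piRISC with one synthetic guide and 0.1 nM transcribed, DNA-blocked target RNA library were mixed, with or without 500 nM GTSF1 partner protein, in HEPES–potassium acetate buffer at 33 °C for 0–8 or 0–960 min. Uncleaved targets were sequenced and normalised to depth and to weakly complementary targets, three trials were pooled, and k3 was capped at 0.0001 min^-1. The pre-steady-state cleavage rate was fitted […].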
For the sequence GGAGAGGACACUAUACAACCUACUACCUCA, the “pre-steady-state target cleavage rate” value was found to be 1.48 ± 0.085.
The result for GGACUGGAUACUAUACAACCUACUACUCA reads 0.152 ± 0.025; that for GGAGACCUAUCUAUACAUCCUAGUACCUCA, 0.0967 ± 0.014.
CCAUCUGGAUACUAUACAACCUACUACCUCA: the “pre-steady-state target cleavage rate” value was 1.4 ± 0.072.
As for GGAGACCUAUCUAUACAACCAACUACCUCA, the “pre-steady-state target cleavage rate” value stood at 0.0118 ± 0.0025.
As for GGACUGCAUACUAUUCAACCUACUACCUCA, the figure is 1.35 ± 0.12.
The result for GCUCUGGAUACUAUACAACCAACUACCACA reads 0.153 ± 0.018; that for GGAGACGAUACUAUACAACGUACAACCUCA, 0.594 ± 0.063.
In the case of CCUCUGGAGACUAUACAACCUACUACCUCA, the “pre-steady-state target cleavage rate” value was 1.88 ± 0.16.
The result for GGAGACCUAUGAUAUGUUCCUACUACCAUCA reads under 0.0001.
Regarding GGAGACGAUACUAUACAACCUACUACGACA, the “pre-steady-state target cleavage rate” value came to 0.58 ± 0.055.
Consider GCUCUGGAUACUAUACAACCUUCUACCUCA, for which the “pre-steady-state target cleavage rate” value is 0.663 ± 0.033.
For GGUCUGGAUAGAUUACAACCUACUACCUCA, the “pre-steady-state target cleavage rate” value was determined as 0.839 ± 0.1.
The result for GCUCUGGAUACUAUACUACCUACUUCCUCA reads 0.576 ± 0.063.
The result for GGUCUGGAUAUCUAUACAACCUACUACCUCA reads 0.818 ± 0.073; that for GGAGUGCAUACUAUAGAACCUACUACCUCA, 1.23 ± 0.075.
The result for GGAGACCUAUGUAUACAACCUACUCCCUCA reads 0.0312 ± 0.0043; that for GGAGACCAUACUAUACAACCAACUACCUGA, 0.085 ± 0.012; that for GGUCUGGAUACUAUUGAACCUACUACCUCA, 0.442 ± 0.042.
Regarding GGAGUCGAUACAAUACAACCUACUACCUCA, the “pre-steady-state target cleavage rate” value came out at 1.44 ± 0.11.
The result for GGUCUGGAUACUGUACAACCUACUACCUCA reads 0.683 ± 0.052.
For GGAGACCUUACUAUACAACCUACUUCCUGA, the “pre-steady-state target cleavage rate” value was 0.11 ± 0.02.
As for GGACUGGUAUCUAUACAACCUACUACCUCA, the figure is 1.33 ± 0.12.
On to GGAGACCUUACUUUUCAACCUACUACCUCA, for which the “pre-steady-state target cleavage rate” value is 0.0873 ± 0.012.
As to GGAGACCUAUGAUAUGUUCCUGCUACCUCA, the “pre-steady-state target cleavage rate” value was under 0.0001.
Turning to GGUCUGGAUACUUAACAACCUACUACCUCA, the “pre-steady-state target cleavage rate” value is 1.23 ± 0.12.
The result for GGAGAGGAUACUAUUCAUCCUACUACCUCA reads 1.12 ± 0.057; that for GGACUGGAUACUAUCAACCUACUACCUCA, 1.54 ± 0.13.
As to GGAGUGGAUACUAUACAACGUACUACGUCA, the “pre-steady-state target cleavage rate” value was 0.237 ± 0.03.
Consider GGAGUCGAUACUAUACAACCUACUACGUCA, for which the “pre-steady-state target cleavage rate” value was 0.911 ± 0.074.
As for GGAGAGGAUACUAUACAACGUACUACCUCA, the figure is 0.168 ± 0.027; as for GGAGACCUUACUAUAGAACCUACUACCUGA, 0.155 ± 0.03.
As for GGAGACCUAAGAAUACAACCUACUACCUCA, the figure is 0.00513 ± 0.0038.
For GGACUCGAUACUAUACAACCUUCUACCUCA, the “pre-steady-state target cleavage rate” value came to 0.666 ± 0.047.
The result for GCUCUGGAUUCUAUACAACCUACUACCUGA reads 0.509 ± 0.071; that for GGAGACCUUACUAUACAACCUACGACCUCA, 0.817 ± 0.083.
As for GGAGAGGAUUCUAUACAACCUUCUACCUCA, the “pre-steady-state target cleavage rate” value turned out to be 0.578 ± 0.03.
Take GGAGACCUCACUAUACAACCUACUACCUCA: the “pre-steady-state target cleavage rate” value amounted to 1.73 ± 0.1.
As to GGAGAGGAUACUAUACAACCUACUCCCUCA, the “pre-steady-state target cleavage rate” value was 0.174 ± 0.02.
As for CCUCUGGAUACUAUACAUCCUACUACCUGA, the figure is 0.868 ± 0.11.
